Test results: article PMC6919601, “Identification of Plasmodium dipeptidyl aminopeptidase allosteric inhibitors by high throughput screening” (PLoS ONE, 2019)
Out of some 110,000 compounds screened, about 230 (0.21%) showed an effect of 50% or more. The list shows a part of the results.

Each compound was assayed against DPAP1 (Plasmodium falciparum, UniProt Q8IIJ9) (assay: primary screen, percent inhibition; read by cleavage of a fluorogenic dipeptide substrate; higher = more effect of the substance).
Set-up: species or system P. falciparum D10 trophozoite lysates; single well
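Note: 30 min substrate incubation versus DMSO and 10 µM JCP410 controls.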

Chain of DPAP1 (Q8IIJ9 whole entry, looked up): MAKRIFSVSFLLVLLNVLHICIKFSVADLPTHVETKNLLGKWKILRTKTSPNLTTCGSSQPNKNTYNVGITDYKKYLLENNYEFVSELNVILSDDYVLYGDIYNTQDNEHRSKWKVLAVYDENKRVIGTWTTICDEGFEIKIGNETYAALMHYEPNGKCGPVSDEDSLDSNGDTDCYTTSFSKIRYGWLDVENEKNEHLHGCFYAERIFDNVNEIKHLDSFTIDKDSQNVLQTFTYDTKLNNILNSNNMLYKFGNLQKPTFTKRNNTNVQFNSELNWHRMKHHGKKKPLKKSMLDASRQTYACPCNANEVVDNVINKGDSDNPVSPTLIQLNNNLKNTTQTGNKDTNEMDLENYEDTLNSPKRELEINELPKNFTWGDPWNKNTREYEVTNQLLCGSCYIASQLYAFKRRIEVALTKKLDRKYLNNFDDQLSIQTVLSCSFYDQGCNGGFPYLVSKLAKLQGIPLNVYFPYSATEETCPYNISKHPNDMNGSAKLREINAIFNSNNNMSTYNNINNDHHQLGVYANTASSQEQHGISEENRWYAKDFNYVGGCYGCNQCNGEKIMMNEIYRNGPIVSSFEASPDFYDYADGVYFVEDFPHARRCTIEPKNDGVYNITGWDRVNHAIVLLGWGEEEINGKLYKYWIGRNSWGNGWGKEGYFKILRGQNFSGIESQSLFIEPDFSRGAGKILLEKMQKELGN

First: CCOc1ccc(-c2[nH]nc(C)c2Oc2ccccc2)c(O)c1
Second: Cc1csc2nc(CNS(=O)(=O)c3ccc(Oc4ccccc4)cc3)cn12
The “% Inhibition @ 10 uM” value of the first is lower: -5.92% for the first, 2.57% for the second.

Compared with C=C(OCC)c1c(N2CCCCC2)c(=O)c1=O, COc1ccc2c(C)c(CC(=O)N3CCCCC3)c(=O)oc2c1 is lower in “% Inhibition @ 10 uM” value: 2.51% for the first, -2.57% for the second.

Going from CCOc1cc(/C=C2/NC(=O)NC2=O)cc(Br)c1OCc1cccc(C(=O)O)c1 to CCOc1cc(/C=C(\C#N)c2nn(-c3ccccc3)c(N)c2C#N)cc(Br)c1OC, the “% Inhibition @ 10 uM” value falls from 5.37% to 1.13%.

First: COc1ccc(C2C(C#N)=C(N)N(c3c(F)cccc3F)C3=C2C(=O)CC(C)(C)C3)cc1OC (centres unmarked)
Second: COc1ccc(CCn2cc3c(c2-c2ccc(Cl)cc2)c(=O)n(C)c(=O)n3C)cc1OC
The “% Inhibition @ 10 uM” value of the first is higher: 1.82% for the first, -3.12% for the second.

Going from COc1ccc(NC2=NC(=O)/C(=C\c3ccc(N(C)C)cc3)S2)cc1 to COc1ccc(-c2oc3ccccc3c(=O)c2O)cc1, the “% Inhibition @ 10 uM” value falls from 0.431% to -0.615%.

Compared with N#CCCS(=O)(=O)c1ccc(Cl)cc1, NC(=O)c1ccccc1NS(=O)(=O)c1cc(Cl)ccc1Cl is lower in “% Inhibition @ 10 uM” value: -0.0369% for the first, -3.71% for the second.

First: CC(C)C(C(=O)O)N1C(=O)C2C3CC(C2C1=O)C1C(c2cccs2)c2sc(O)nc2SC31 (centres unmarked)
Second: CC1=C(C(=O)Nc2ccccc2)C(c2cccs2)C(C#N)=C(SCC(=O)NC2CC2)N1 (centres unmarked)
The “% Inhibition @ 10 uM” value of the first is lower: -3.52% for the first, 1.03% for the second.

Compared with CCN(CC)CCNC(=O)c1ccc2nc(N3CCOCC3)sc2c1, CCN(CC)CCCNC(=O)C1CCN(c2nnc(N3CCCC3=O)s2)CC1 is higher in “% Inhibition @ 10 uM” value: -0.637% for the first, 5.23% for the second.

Compared with CCCNC(=O)c1nc(C)c(C)nc1C(=O)Nc1ccc(C)cc1, Cc1ccc(NC(=O)c2cccs2)cc1NC(=O)c1cccs1 is lower in “% Inhibition @ 10 uM” value: -1.96% for the first, -4.16% for the second.

Compared with O=C(c1ccc2c(c1)sc1nc(-c3ccccc3)cn12)N1CCN(Cc2ccc3c(c2)OCO3)CC1, Fc1ccc(CN2CCN(c3cccc(Cl)c3)CC2)cc1 is lower in “% Inhibition @ 10 uM” value: 25% for the first, -3.71% for the second.

First: N#CCNC(=O)[C@H](CC1CCCCC1)NC(=O)c1sccc1Br
Second: O=C(CN1Cc2ccccc2C1=O)N1CCC(Cc2ccccc2)CC1
The “% Inhibition @ 10 uM” value of the first is lower: 1.35% for the first, 3.12% for the second.

Compared with Cc1c(Cl)cccc1NC(=O)c1cccnc1, Cc1c(C(=O)Nc2cccc3ccccc23)cnn1-c1ccccc1 is higher in “% Inhibition @ 10 uM” value: 0.135% for the first, 0.686% for the second.

First: C#CCSc1nc2c(c(=O)n1Cc1ccccc1)C1(CCCC1)Cc1ccccc1-2
Second: NC(=O)CSc1nc2ccccc2c(=O)n1Cc1ccccc1
The “% Inhibition @ 10 uM” value of the first is higher: -1.99% for the first, -7.55% for the second.

Going from Clc1ccc(CN2CCN(c3ncccn3)CC2)c(Cl)c1 to COc1ccccc1CN1CCN(c2ccccc2)CC1, the “% Inhibition @ 10 uM” value falls from -5.41% to -5.5%.

First: CCOc1ccc(C2c3c(oc4ccc(C)cc4c3=O)C(=O)N2CCCN2CCOCC2)cc1OC (centres unmarked)
Second: COc1ccc(/C=C2/CN(C)C/C(=C\c3ccc(OC)c(OC)c3)C2=O)cc1OC
The “% Inhibition @ 10 uM” value of the first is higher: 0.628% for the first, -1.06% for the second.

Compared with COCCN1C(=O)c2cccc3c(Cl)ccc(c23)C1=O, CCc1c(C)c2c(C)nn(-c3ccccc3)c2oc1=O is lower in “% Inhibition @ 10 uM” value: 5.43% for the first, -2.5% for the second.

Compared with CC1CCN(CC(C)CNC(=O)c2cc(-c3ccccn3)nc3ccccc23)CC1 (centres unmarked), CC1CCN(C(=O)C2c3ccccc3C(=O)N3CCc4ccccc4C23)CC1 (centres unmarked) is lower in “% Inhibition @ 10 uM” value: -0.519% for the first, -1.21% for the second.

Compared with Cc1cccc(OCc2nc(C#N)c(N3CCN(c4ccccc4)CC3)o2)c1, Cc1ccc(-c2noc(CCc3ccccc3)n2)cc1 is higher in “% Inhibition @ 10 uM” value: -3.16% for the first, 3.66% for the second.

First: COc1ccc(CCNCC2CCCO2)cc1 (centres unmarked)
Second: CC(C)(C)c1ccc(OCCCC(=O)O)cc1
The “% Inhibition @ 10 uM” value of the first is higher: 0.472% for the first, 0.13% for the second.

Compared with Cc1cccc(OCC(=O)Nc2ccc(S(=O)(=O)Nc3ccc(C)cc3C)cc2)c1, Cc1cc(OCC(=O)Nc2ccc(O)cc2)cc(C)c1Cl is lower in “% Inhibition @ 10 uM” value: -4.14% for the first, -6.38% for the second.

First: O=C(Nc1cccnc1)c1cc2nc(-c3ccc(Br)cc3)cc(C(F)(F)F)n2n1
Second: O=C(Nc1ccccc1C(F)(F)F)C1CC(=O)N(c2ccc(Br)cc2)C1 (centres unmarked)
The “% Inhibition @ 10 uM” value of the first is higher: 2.4% for the first, -5.13% for the second.

Compared with Cc1c(C(=O)Nc2ccc(S(=O)(=O)N3CCCCC3C)cc2)oc2ccccc12 (centres unmarked), O=C(NCC1(c2ccccc2)CCCC1)C1CCCN1S(=O)(=O)c1cccc2nsnc12 (centres unmarked) is higher in “% Inhibition @ 10 uM” value: 2.73% for the first, 2.93% for the second.

First: CNc1nc2ccc(C(=O)c3ccccc3)cc2n2cnnc12
Second: Cc1nnc2c(N3CC(=O)N(CCc4ccccc4)C(=O)C3)nc3ccccc3n12
The “% Inhibition @ 10 uM” value of the first is lower: -7.28% for the first, -1.67% for the second.

First: NC(=O)C(=O)Nc1nc(C23CC4CC(CC(C4)C2)C3)cs1
Second: CC(=O)Nc1cccc(-c2cn3ccsc3n2)c1
The “% Inhibition @ 10 uM” value of the first is higher: 7.97% for the first, -4.03% for the second.

Going from CC1(C)NC(=S)N(c2ccccc2)N1 to COc1ccc(/C=C/C(=O)N2c3ccccc3C(C)(c3ccccc3)CC2(C)C)cc1 (centres unmarked), the “% Inhibition @ 10 uM” value rises from -3.52% to 56.6%.

Going from O=C(CSc1nc(O)c2cnn(-c3ccccc3)c2n1)N1CCC(Cc2ccccc2)CC1 to c1ccc2c(c1)CCN(c1ncnc3c1nnn3Cc1cccc3ccccc13)C2, the “% Inhibition @ 10 uM” value rises from -3.35% to -0.0678%.

Going from CCOC(=O)c1c(C)[nH]c(C)c1S(=O)(=O)N(C)CC(=O)N1CCc2ccccc2C1 to Cc1ccc(-c2nc(CS(=O)(=O)CC(=O)NC(C)c3ccccc3)c(C)o2)cc1 (centres unmarked), the “% Inhibition @ 10 uM” value rises from -4.55% to -0.138%.

Compared with CC12CN3CC(C)(CN(C1)C(=O)c1ccccc1C3=O)C2=O, CC1CCCN(Cc2nc3c(c(=O)n(C)c(=O)n3C)n2CC(=O)c2ccccc2)C1 (centres unmarked) is lower in “% Inhibition @ 10 uM” value: 2.94% for the first, -8.06% for the second.

First: Cc1cccc(-n2c(S)nnc2CN2CCN(C)CC2)c1
Second: Cc1ccc(/C=c2\sc3ncnn3c2=O)o1
The “% Inhibition @ 10 uM” value of the first is lower: -4.21% for the first, 0.222% for the second.

Compared with CC(C)c1ccc(/C=C2\C(=O)NC(=S)N(c3ccc(Cl)cc3)C2=O)cc1, C=CCOc1ccc(C(=O)Nc2cc(-c3ccc(C)cc3)no2)cc1 is lower in “% Inhibition @ 10 uM” value: 7.55% for the first, -1.47% for the second.

Going from CC[C@@H](C)[C@H](NC(=O)CC(c1ccccc1)c1ccccc1)C(=O)N[C@@H](CCc1ccccc1)C(=O)CO to CCN(CC)S(=O)(=O)c1ccc(-c2ccc(S(=O)(=O)N(CC)CC)cc2)cc1, the “% Inhibition @ 10 uM” value falls from 5.05% to 3.37%.
